In the supplement of paper PMC8728848:
This is one part of the list.

Key:
Assay in all cases: glycan array binding signal (z-score within array); higher = stronger binding
Settings in all cases: glycan notation: IUPAC condensed, linker removed
[1] = biological target: Fuc(a1-2)Gal(b1-4)[Fuc(a1-3)]GlcNAc
Outline: (§1)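 Glycan array data came from 3228 arrays in the Consortium for Functional Glycomics database, and only arrays with an available protein sequence were kept. Glycan names were put into IUPAC-condensed notation, and columns mapping to the same glycan were averaged. The binding signal is a within-array Z-score, averaged across arrays of one protein sequence run at different concentrations or buffers and across linkers. A negative Z-score can be read as non-binding.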

[2] = biological target: Fuc(a1-2)Gal(b1-4)[Fuc(a1-3)]GlcNAc(b1-2)Man(a1-3)[Fuc(a1-2)Gal(b1-4)[Fuc(a1-3)]GlcNAc(b1-2)Man(a1-6)]Man(b1-4)GlcNAc(b1-4)[Fuc(a1-6)]GlcNAc
Outline: as §1

[3] = biological target: Fuc(a1-2)Gal(b1-4)[Fuc(a1-3)]GlcNAc(b1-2)[Fuc(a1-2)Gal(b1-4)[Fuc(a1-3)]GlcNAc(b1-4)]Man(a1-3)[Fuc(a1-2)Gal(b1-4)[Fuc(a1-3)]GlcNAc(b1-2)Man(a1-6)]Man(b1-4)GlcNAc(b1-4)GlcNAc
Outline: as §1

[4] = biological target: Fuc(a1-2)Gal(b1-4)[Fuc(a1-3)]GlcNAc(b1-3)Gal(b1-4)[Fuc(a1-3)]GlcNAc
Outline: as §1

[5] = biological target: Fuc(a1-2)Gal(b1-4)[Fuc(a1-3)]GlcNAc(b1-3)Gal(b1-4)[Fuc(a1-3)]GlcNAc(b1-3)Gal(b1-4)[Fuc(a1-3)]GlcNAc
Outline: as §1

[6] = biological target: Fuc(a1-2)Gal(b1-4)[Fuc(a1-3)]GlcNAc(b1-3)GalNAc
Outline: as §1

[7] = biological target: Fuc(a1-2)Gal(b1-4)[Fuc(a1-3)]GlcNAc(b1-3)[Neu5Ac(a2-6)Gal(b1-4)GlcNAc(b1-6)]Gal(b1-4)Glc
Outline: as §1

[8] = biological target: Fuc(a1-2)Gal3S(b1-4)GlcNAc
Outline: as §1

[9] = biological target: Fuc(a1-2)Gal6S(b1-3)GlcNAc
Outline: as §1

[10] = biological target: Fuc(a1-2)Gal6S(b1-3)GlcNAc6S
Outline: as §1

Fuc(a1-2)Gal6S(b1-4)Glc = biological target: Fuc(a1-2)Gal6S(b1-4)Glc
Outline: as §1

[11] = biological target: Fuc(a1-2)Gal6S(b1-4)Glc6S
Outline: as §1

Fuc(a1-2)GlcNAc = biological target: Fuc(a1-2)GlcNAc
Outline: as §1

Fuc(a1-2)[Gal(a1-3)]Gal = biological target: Fuc(a1-2)[Gal(a1-3)]Gal
Outline: as §1

[12] = biological target: Fuc(a1-2)[Gal(a1-3)]Gal(b1-3)GalNAc
Outline: as §1

[13] = biological target: Fuc(a1-2)[Gal(a1-3)]Gal(b1-3)GalNAc(b1-3)Gal(a1-4)Gal(b1-4)Glc
Outline: as §1

[14] = biological target: Fuc(a1-2)[Gal(a1-3)]Gal(b1-3)GlcNAc
Outline: as §1

[15] = biological target: Fuc(a1-2)[Gal(a1-3)]Gal(b1-3)GlcNAc(b1-2)Man(a1-3)[Fuc(a1-2)[Gal(a1-3)]Gal(b1-3)GlcNAc(b1-2)Man(a1-6)]Man(b1-4)GlcNAc(b1-4)GlcNAc
Outline: as §1

[16] = biological target: Fuc(a1-2)[Gal(a1-3)]Gal(b1-3)GlcNAc(b1-2)Man(a1-3)[Fuc(a1-2)[Gal(a1-3)]Gal(b1-3)GlcNAc(b1-2)Man(a1-6)]Man(b1-4)GlcNAc(b1-4)[Fuc(a1-6)]GlcNAc
Outline: as §1

[17] = biological target: Fuc(a1-2)[Gal(a1-3)]Gal(b1-3)GlcNAc(b1-3)GalNAc
Outline: as §1

[18] = biological target: Fuc(a1-2)[Gal(a1-3)]Gal(b1-3)GlcNAc(b1-6)GalNAc
Outline: as §1

[19] = biological target: Fuc(a1-2)[Gal(a1-3)]Gal(b1-4)Glc
Outline: as §1

[20] = biological target: Fuc(a1-2)[Gal(a1-3)]Gal(b1-4)GlcNAc
Outline: as §1

[21] = biological target: Fuc(a1-2)[Gal(a1-3)]Gal(b1-4)GlcNAc(b1-2)Man
Outline: as §1

[22] = biological target: Fuc(a1-2)[Gal(a1-3)]Gal(b1-4)GlcNAc(b1-2)Man(a1-3)[Fuc(a1-2)[Gal(a1-3)]Gal(b1-4)GlcNAc(b1-2)Man(a1-6)]Man(b1-4)GlcNAc(b1-4)GlcNAc
Outline: as §1

[23] = biological target: Fuc(a1-2)[Gal(a1-3)]Gal(b1-4)GlcNAc(b1-2)Man(a1-3)[Fuc(a1-2)[Gal(a1-3)]Gal(b1-4)GlcNAc(b1-2)Man(a1-6)]Man(b1-4)GlcNAc(b1-4)[Fuc(a1-6)]GlcNAc
Outline: as §1

[24] = biological target: Fuc(a1-2)[Gal(a1-3)]Gal(b1-4)GlcNAc(b1-3)GalNAc
Outline: as §1

[25] = biological target: Fuc(a1-2)[Gal(a1-3)]Gal(b1-4)GlcNAc(b1-3)[Fuc(a1-2)[Gal(a1-3)]Gal(b1-4)GlcNAc(b1-6)]GalNAc
Outline: as §1

[26] = biological target: Fuc(a1-2)[Gal(a1-3)]Gal(b1-4)GlcNAc(b1-6)GalNAc
Outline: as §1

[27] = biological target: Fuc(a1-2)[Gal(a1-3)]Gal(b1-4)[Fuc(a1-3)]Glc
Outline: as §1

[28] = biological target: Fuc(a1-2)[Gal(a1-3)]Gal(b1-4)[Fuc(a1-3)]GlcNAc
Outline: as §1

[29] = biological target: Fuc(a1-2)[Gal(a1-3)]Gal(b1-4)[Fuc(a1-3)]GlcNAc(b1-3)GalNAc
Outline: as §1

[30] = biological target: Fuc(a1-2)[Gal(a1-4)]Gal(b1-4)GlcNAc
Outline: as §1

[31] = biological target: Fuc(a1-2)[GalNAc(a1-3)]Gal
Outline: as §1

[32] = biological target: Fuc(a1-2)[GalNAc(a1-3)]Gal(b1-3)GalNAc(a1-3)[Fuc(a1-2)]Gal(b1-4)GlcNAc
Outline: as §1

[33] = biological target: Fuc(a1-2)[GalNAc(a1-3)]Gal(b1-3)GalNAc(b1-3)Gal(a1-4)Gal(b1-4)Glc
Outline: as §1

[34] = biological target: Fuc(a1-2)[GalNAc(a1-3)]Gal(b1-3)GlcNAc
Outline: as §1

[35] = biological target: Fuc(a1-2)[GalNAc(a1-3)]Gal(b1-3)GlcNAc(b1-2)Man(a1-3)[Fuc(a1-2)[GalNAc(a1-3)]Gal(b1-3)GlcNAc(b1-2)Man(a1-6)]Man(b1-4)GlcNAc(b1-4)GlcNAc
Outline: as §1

B1: MAA (Maackia amurensis), P0DKL3 (protein)
chain: MATSNSKPTQVLLATFLTFFFLLLNNVNSSDELSFTINNFVPNEADLLFQGEASVSSTGVLQLTRVENGQPQKYSVGRALYAAPVRIWDNTTGSVASFSTSFTFVVKAPNPDITSDGLAFYLAPPDSQIPSGSVSKYLGLFNNSNSDSSNQIVAVELDTYFAHSYDPWDPNYRHIGIDVNGIESIKTVQWDWINGGVAFATITYLAPNKTLIASLVYPSNQTTFSVAASVDLKEILPEWVRVGFSAATGYPTEVETHDVLSWSFTSTLEANCDAATENNVHIARYTA
glycan array binding signal (z-score) [1]: -0.161
glycan array binding signal (z-score) [2]: -0.211
glycan array binding signal (z-score) [3]: -0.128
glycan array binding signal (z-score) [4]: -0.122
glycan array binding signal (z-score) [5]: -0.059
glycan array binding signal (z-score) [6]: 0.506
glycan array binding signal (z-score) [7]: -0.23
glycan array binding signal (z-score) [8]: -0.223
glycan array binding signal (z-score) [9]: -0.348
glycan array binding signal (z-score) [10]: -0.391
glycan array binding signal (z-score) (Fuc(a1-2)Gal6S(b1-4)Glc): -0.187
glycan array binding signal (z-score) [11]: -0.191
glycan array binding signal (z-score) (Fuc(a1-2)GlcNAc): -0.214
glycan array binding signal (z-score) (Fuc(a1-2)[Gal(a1-3)]Gal): -0.152
glycan array binding signal (z-score) [12]: -0.207
glycan array binding signal (z-score) [13]: -0.232
glycan array binding signal (z-score) [14]: -0.153
glycan array binding signal (z-score) [15]: -0.258
glycan array binding signal (z-score) [16]: -0.172
glycan array binding signal (z-score) [17]: -0.241
glycan array binding signal (z-score) [18]: -0.253
glycan array binding signal (z-score) [19]: -0.094
glycan array binding signal (z-score) [20]: -0.238
glycan array binding signal (z-score) [21]: -0.22
glycan array binding signal (z-score) [22]: -0.165
glycan array binding signal (z-score) [23]: -0.241
glycan array binding signal (z-score) [24]: -0.135
glycan array binding signal (z-score) [25]: -0.217
glycan array binding signal (z-score) [26]: -0.242
glycan array binding signal (z-score) [27]: -0.197
glycan array binding signal (z-score) [28]: -0.118
glycan array binding signal (z-score) [29]: 0.203
glycan array binding signal (z-score) [30]: -0.171
glycan array binding signal (z-score) [31]: -0.204
glycan array binding signal (z-score) [32]: -0.24
glycan array binding signal (z-score) [33]: -0.284
glycan array binding signal (z-score) [34]: -0.251
glycan array binding signal (z-score) [35]: -0.217
